# According to PMC6919601, “Identification of Plasmodium dipeptidyl aminopeptidase allosteric inhibitors by high throughput screening” (PLoS ONE, 2019):
# The whole screen tested about 110,000 compounds, of which about 230 (0.21%) showed an effect of 50% or more. The list shows a part of the results.
# Molecular target: DPAP1 (Plasmodium falciparum, UniProt Q8IIJ9)
# Experiment: primary screen, percent inhibition; read by cleavage of a fluorogenic dipeptide substrate; higher = more effect of the substance
# Parameters: species or system P. falciparum D10 trophozoite lysates; single well
# 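Note: 30 min substrate incubation versus DMSO and 10 µM JCP410 controls.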
# Sequence of DPAP1 (Q8IIJ9 whole entry, looked up): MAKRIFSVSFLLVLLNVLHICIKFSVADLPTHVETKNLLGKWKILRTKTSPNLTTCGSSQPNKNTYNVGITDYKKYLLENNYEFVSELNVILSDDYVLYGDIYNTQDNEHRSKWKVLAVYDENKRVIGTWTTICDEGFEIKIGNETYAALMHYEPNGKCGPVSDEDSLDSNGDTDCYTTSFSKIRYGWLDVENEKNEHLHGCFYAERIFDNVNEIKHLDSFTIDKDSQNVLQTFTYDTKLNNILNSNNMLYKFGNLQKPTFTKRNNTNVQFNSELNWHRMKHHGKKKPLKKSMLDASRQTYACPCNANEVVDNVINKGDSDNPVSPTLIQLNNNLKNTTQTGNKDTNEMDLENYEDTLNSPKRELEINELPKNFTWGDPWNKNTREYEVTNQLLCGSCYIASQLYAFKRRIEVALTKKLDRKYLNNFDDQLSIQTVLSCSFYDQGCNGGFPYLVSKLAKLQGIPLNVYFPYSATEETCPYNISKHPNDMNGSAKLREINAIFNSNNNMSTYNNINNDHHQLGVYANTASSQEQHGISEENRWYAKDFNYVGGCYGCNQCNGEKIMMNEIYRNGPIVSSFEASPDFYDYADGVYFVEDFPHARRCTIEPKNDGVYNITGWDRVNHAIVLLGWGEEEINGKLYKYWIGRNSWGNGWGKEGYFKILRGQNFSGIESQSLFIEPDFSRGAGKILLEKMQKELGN
row,Compound,% Inhibition @ 10 uM
1,CC(=O)N1CCN(Cc2ccccc2Br)CC1,-1.5%
2,CSc1ncc(OCc2ccccc2)c(O)n1,-3.63%
3,Cc1ccc(-n2c(C)cc(C(=O)C(=O)Nc3nccs3)c2C)c(C)c1,5.48%
4,O=c1c2c(nc3n1CC(O)CS3)-c1ccccc1CC21CCCCC1 (stereo not shown),-0.711%
5,CCc1c(C)sc(NC(=O)c2cccc3ccccc23)c1C#N,5.54%
6,CN(C)C(=S)NC1CCS(=O)(=O)C1 (stereo not shown),2.56%
7,Cc1cc(CO)c(C)n1-c1ccccc1F,3.05%
8,CCCN(C(=O)C(C)(C)C)c1nc(-c2ccccc2)cs1,-3.28%
9,COCc1cc(C)nc2sc(C(=O)c3ccccc3)c(NC(=O)c3ccco3)c12,-2.8%
10,CCCN1C(C(=O)c2ccccc2)=C(OC(=O)c2ccccc2)c2ccccc2S1(=O)=O,-1.22%
11,Cc1ccc(/C=N/c2nc3ccccc3n2Cc2ccc(Cl)cc2)o1,21.4%
12,CCOc1ccccc1CN(C)CCN(C)C,3.48%
13,O=C(NCc1ccccc1)N1CCC(CN2CCc3ccccc3C2)CC1,8.14%
14,Cc1ccc(NC(=O)CC2Nc3cc(C)c(C)cc3NC2=O)cc1C (stereo not shown),1.86%
15,COc1ccc(C/N=C/C2=C(O)c3sccc3N(Cc3ccc(C)cc3)S2(=O)=O)cc1,7.46%
16,O=[N+]([O-])c1ccc(N2CCN(CC3CC4C=CC3C4)CC2)cc1 (stereo not shown),-4.14%
17,CCOc1ccc(S(=O)(=O)NCCc2c(C)[nH]c3ccc(C)cc23)cc1,4.12%
18,CCC(Sc1nc2c(sc3ccccc32)c(=O)n1CCCOC)C(=O)NC1CCCC1 (stereo not shown),-0.628%
19,O=C(O)c1ccc(C(=O)NCc2ccco2)c(C(=O)O)c1,-2.88%
20,NC(=O)c1ccc(NC(=O)c2ccc(Cl)cc2)cc1,3.21%
21,Cc1ccc(CS(=O)Cc2ccc(C(=O)N3CCOCC3)o2)cc1 (stereo not shown),-2.44%
22,COc1ccccc1/C=C/C1=NC(=C\C=C/c2ccccc2)/C(=O)O1,20.5%
23,COc1cc(S(=O)(=O)N2CCC(n3c(O)nc4ccccc43)CC2)ccc1-n1cnnn1,-2.4%
24,NS(=O)(=O)c1ccc(N2C(=O)c3cccnc3C2=O)cc1,-14.8%
25,CC1CCN(S(=O)(=O)c2ccc(NS(=O)(=O)Cc3ccccc3)cc2)CC1,0.956%

row,Compound,% Inhibition @ 10 uM
1,CCCC[C@H](NC(=O)[C@H](CC(C)C)NC(=O)OCc1ccccc1)C(=O)c1nnc(-c2ccccc2)o1,-6.46%
2,CCOc1ccccc1C1CC(=O)Nc2cc(C)c(C)cc21 (stereo not shown),-1.24%
3,CCOc1cc(-c2noc(CCCC(=O)NC3CCCCC3)n2)cc(Br)c1OC,-0.946%
4,COc1cc(C(=O)N2CCC(C)CC2)cc(OC)c1OC,-5.13%
5,O=C1CC(c2ccccc2)=NN1c1cccc([N+](=O)[O-])c1,-1.64%
6,Cc1c(Cl)cccc1NC(=O)c1ccccc1C(=O)O,-2.56%
7,O=C(O)c1ccc(CNS(=O)(=O)c2cccc(Cl)c2)cc1,-2.76%
8,NC(=S)N/N=C1\CC(n2nnnc2-c2ccccc2Cl)C2COC1O2 (stereo not shown),4.19%
9,CC(C(=O)NCC1(c2ccccc2)CCCC1)N1CCCC1 (stereo not shown),3.89%
10,Cc1ccc(OCC(=O)Nc2ccccc2Cl)cc1C,-10.8%
11,CC(C)NC(=O)c1ccc(CSc2nc3ccncc3n2Cc2ccccc2F)cc1,1.72%
12,CC(=O)Nc1ccc(C)c(NC(=O)C(C)C)c1,-0.598%
13,CCOCCCNC(=O)C1CCN(c2nn3cc(-c4ccc(C)cc4)nc3s2)CC1,3.43%
14,COc1nc(C)c(/C=C/C(=O)N(C(=O)NC2CCCCC2)C2CCCCC2)c(OC)n1,4.01%
15,O=C(O)Cc1ccc(NC(=O)c2ccc3c(c2)C(=O)N(CC2CCCO2)C3=O)cc1 (stereo not shown),-1.27%
16,Cc1ccc(OCC(=O)NC2CCCCCCC2)cc1,7.34%
17,CCOc1ccccc1C1CC(c2ccc(Cl)c(Cl)c2)Nc2nc(N)nn21 (stereo not shown),-9.75%
18,O=c1c(NCc2ccc(F)cc2)c(-c2ccccc2)c1=O,-5.92%
19,CN(C)C(=O)CCc1nc(-c2ccc(C(C)(C)C)cc2)no1,5.17%
20,N=C1S/C(=C\c2ccccc2F)C(=O)N1c1ccc2c(c1)OCO2,0.643%
21,COc1cc(-c2ccc(NC(=O)C(F)(F)F)c(OC)c2)ccc1NC(=O)C(F)(F)F,0.708%
22,Cc1c(CN2CCN(c3ccc(Cl)cc3)CC2)c(=O)n(-c2ccccc2)n1C,0.217%
23,Cc1ccc(OCC(=O)Nc2nc3ccccc3s2)cc1,4.11%
24,CCOC(=O)Nc1nnc(Cc2ccc(OC)c(OC)c2)s1,-2.16%
25,C=CCN1C(=O)/C(=C\c2ccccc2F)N=C1SCC(=O)NC1CCCCC1,7.05%

row,Compound,% Inhibition @ 10 uM
1,CN1CCN(Cc2ccccc2F)CC1,-7.52%
2,COc1ccc(-c2nc3c(c(SC)n2)COC(C)(C)C3)cc1,-3.5%
3,CCOc1ccc(-n2cccc2/C=C2/C(=N)N3C(=NC2=O)SN=C3S(C)(=O)=O)cc1,-5.22%
4,CCC1(CC)N=C(c2ccccc2)C(=S)N1,1.76%
5,COc1cccc(NC(=O)c2c(OC)cccc2OC)c1,-5.11%
6,COc1ccc(NC(=O)c2ccc(COc3ccccc3Br)o2)c(OC)c1,-1.79%
7,CCc1c(C)sc(N)c1C(=O)Nc1cccc(C(F)(F)F)c1,3.72%
8,COc1cccc(C2Nc3ccccc3S(=O)(=O)N2Cc2ccccc2)c1 (stereo not shown),-6.59%
9,CCCOc1ccc(C(=O)N2CCN(c3ccc(NC(=O)CC)cc3Cl)CC2)cc1,-11.9%
10,Cc1ccc(N2C(=O)c3ccc(C(=O)Nc4cc(C)on4)cc3C2=O)cc1,6.31%
11,CSc1ncc(C(=O)O)c(C)n1,-3.02%
12,CCOc1ccc(CCNC(=O)NCc2noc3ccc(C)cc23)cc1OCC,-8.38%
13,COc1ccc(S(=O)(=O)N(C)CC(=O)N2CCN(Cc3ccc4c(c3)OCO4)CC2)cc1,0.826%
14,CCOc1ccc(C(=O)NCC2CCCO2)cc1 (stereo not shown),-2.94%
15,COc1ccc(Cl)cc1C(=O)N1N=C(C)CC1(O)C(F)(F)F (stereo not shown),3.24%
16,COc1ccc(/C=C2\C(=O)NC(=O)N(C)C2=O)c(OC)c1,7.1%
17,O=C(CSCc1cnn(-c2ccccc2)c1-n1cccc1)NCCc1c[nH]c2ccccc12,-4.68%
18,Cc1ccc(/C(=C\N2CCOCC2)S(=O)(=O)c2ccc(C)cc2)cc1,-1.79%
19,CC1=NN(C(=O)c2ccc(COc3ccc(Br)cc3)o2)C(O)(C(F)(F)F)C1 (stereo not shown),2.4%
20,C=C(c1ccccc1)C(C(=O)O)S(C)(=O)=O (stereo not shown),-0.152%
21,NS(=O)(=O)c1ccc(CCNC(=O)C2CCCN(c3nc4ccsc4c(=O)s3)C2)cc1 (stereo not shown),-3.48%
22,Cc1cccc(CSc2nc3ccncc3n2CC(=O)N2CC(C)CC(C)C2)c1 (stereo not shown),-6.01%
23,CN(CC(=O)Nc1ccc(Cl)cc1)S(=O)(=O)c1ccc(Br)cc1,-2.8%
24,O=C(Nc1ccc(Br)cc1)c1cccc(S(=O)(=O)Nc2ccccn2)c1,-0.0369%
25,O=C(C1CCN(c2ncnc3c2nc2n3CCCCC2)CC1)N(Cc1ccco1)C1CCCC1,1.66%

row,Compound,% Inhibition @ 10 uM
1,Cc1cc(NC(=O)C2CCN(c3ncnc4c3nc3n4CCCCC3)CC2)no1,2.59%
2,O=C(c1ccccc1)N1CCN(C2CC(=O)N(c3cccc(Br)c3)C2=O)CC1 (stereo not shown),-7.34%
3,Cc1nnc(O)c2cc3ccccc3n12,-3.53%
4,O=C(CSc1nnc(CNC(=O)c2ccccc2F)o1)NCc1ccc(F)cc1,-1.58%
5,COc1cccc(CN2CCN(C(=O)c3cccc(Cl)c3)CC2)c1,1.61%
6,Cc1cccc2c1-c1sc(C(=O)N3CCCC(C)C3)cc1CO2 (stereo not shown),1.89%
7,C=CCNc1ncnc2c1sc1nc3c(cc12)COC(C)(C)C3,-2.94%
8,CCOCCCNC(=O)/C(C#N)=C/c1c(Oc2ccc(Br)cc2)nc2ccccn2c1=O,4.06%
9,CC(C)c1ccc(S(=O)(=O)c2nnn3c2nc(N2CCCC2)c2ccccc23)cc1,-12.6%
10,O=C(Nc1ncc(Br)s1)C1CCN(S(=O)(=O)c2cccc3nonc23)CC1,5.74%
11,CCOC(=O)C1CCCN(Cc2ccc(OC)c(C)c2)C1 (stereo not shown),3.16%
12,CCn1cc(/C=c2\sc3n(c2=O)C(c2ccccc2)C(C(=O)Nc2ccccc2)=C(C)N=3)c(C)n1 (stereo not shown),8.87%
13,CCOC(=O)c1c(C)oc2ncnc(NCc3cc(OC)ccc3OC)c12,1.15%
14,Cc1ccc(S(=O)(=O)Nc2ccc(S(=O)(=O)NC(C)(C)C)cc2)cc1,2.44%
15,COc1ccc(C2=NC(C(F)(F)F)(C(F)(F)F)N=C3C=CC(C)=CN32)cc1,-3.53%
16,CCOc1cc(/C=C2/NC(=O)N(CC)C2=O)ccc1OCc1ccc(C(=O)O)cc1,-3.13%
17,COc1ccccc1NC(=O)COc1ccccc1,1.44%
18,COc1cc(C)nc(NC(=O)Nc2sc(NS(=O)(=O)c3ccccc3)nc2C)n1,0.131%
19,COc1ccc2oc(=O)c(-c3cn4c(n3)sc3cc(Cl)ccc34)cc2c1,1.58%
20,Cc1nc2ccc(S(=O)(=O)N(CC(=O)NC3CCCC3)Cc3ccccc3)cc2s1,-8.32%
21,Brc1ccc(CN2CCN(c3ncccn3)CC2)o1,-0.828%
22,COCC(C)NCc1ccccc1OC (stereo not shown),2.91%
23,Cc1ccc(S(=O)(=O)N2CCC(C(=O)NCc3ccc(F)cc3)CC2)cc1,-3.12%
24,COc1cc(CN2CCc3ccccc3C2)cc2c1OCO2,1.87%
25,COc1cc(-c2cc(NC(=O)Cn3ncc4c3-c3ccccc3OC4)on2)cc(OC)c1OC,-4.21%
